Source: PubChem BioAssay AID1745853 (National Center for Advancing Translational Sciences (NCATS), 2022)
Some of the results follow. Shown are side measurements of this screen, not its main read-out; they come without a call.

Assays:
Assay in all cases: Primary Screen for Target Class Profiling of Small Molecule Inhibitors of Methyltransferases
[1] = biological target: Glycine N-methyltransferase (Homo sapiens) (UniProt Q14749); settings: purified enzyme, MTase-Glo SAH luminescence; measured here: GNMT inhibition; at 40 µM; stronger effect = lower value
Outline: (§1)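 Each enzyme was assayed with SAM and its substrate. SAH formation detected by MTase-Glo luminescence; single-point 40 uM screen[…].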

[2] = biological target: Guanidinoacetate N-methyltransferase (Homo sapiens) (UniProt Q14353); settings: purified enzyme, MTase-Glo SAH luminescence; measured here: GAMT inhibition; at 40 µM; stronger effect = lower value
Outline: as §1

[3] = biological target: Histamine N-methyltransferase (Homo sapiens) (UniProt P50135); settings: purified enzyme, MTase-Glo SAH luminescence; measured here: HNMT inhibition; at 40 µM; stronger effect = lower value
Outline: as §1

[4] = biological target: Nicotinamide N-methyltransferase (Homo sapiens) (UniProt P40261); settings: purified enzyme, MTase-Glo SAH luminescence; measured here: NNMT inhibition; at 40 µM; stronger effect = lower value
Outline: as §1

[5] = biological target: Phenylethanolamine N-methyltransferase (Homo sapiens) (UniProt P11086); settings: purified enzyme, MTase-Glo SAH luminescence; measured here: PNMT inhibition; at 40 µM; stronger effect = lower value
Outline: as §1
% is scaled to controls: 0 for no effect and ±100 for the full control effect.

SMILES	activity change, negative = inhibition [1] [%]	activity change, negative = inhibition [2] [%]	activity change, negative = inhibition [3] [%]	activity change, negative = inhibition [4] [%]	activity change, negative = inhibition [5] [%]
O=C(CCCc1nnc2n3nc(-c4ccccc4)nc3c3ccccc3n12)N1CCN(c2ccc(F)cc2)CC1	-12	5.54	1.59	-0.026	-5.51
Cc1ccccc1CN1C(=O)c2cc3sccc3n2CC1(C)C(=O)NC1CCCCCCC1 (stereo not drawn)	8.06	0.041	9.43	7.76	2.23
O=C1CCN(C(=O)c2cc3ccccc3[nH]2)CCCCCCN1	-3.5	-2.52	-0.732	-5.63	-13.2
COc1ccccc1Nc1nc2c(S(=O)(=O)c3ccc(C)cc3)nnn2c2ccccc12	4.01	1.97	4.74	8.06	-2.05
COc1cc(CO)ccc1O[C@@H]1O[C@H](CO)[C@@H](O)[C@H](O)[C@H]1O	-0.897	-5.5	4.75	-13.2	-1.17
CC(=O)OC1[C@H]2[C@@H](C[C@@H](C)[C@@H]3C=CC(=O)[C@@]13C)OC(=O)[C@@H]2C (stereo partly drawn)	-6.12	-8.15	5.17	-16	2.13
O=C(CCCc1c[nH]c2ccccc12)N1CCc2nc3cc[nH]n3c(=O)c2C1	-8.11	-9.84	-7.37	-11.9	-17.4
CC1=C(C(=O)Nc2cc(Cl)ccc2Cl)C(c2ccco2)C2=C(CCCC2=O)N1 (stereo not drawn)	-12.9	-0.985	7.09	-20.7	-0.542
Cc1ccc(NC(=O)Cn2nc3n(CCc4ccccc4)c(=O)c4ccccc4n3c2=O)cc1C	2.64	3.02	4.06	0.008	0.337
NS(=O)(=O)c1cc2c(cc1Cl)NC=NS2(=O)=O	7.02	11.9	9.49	-5.55	3.01
COc1ccc(CCN2C(=O)c3nc4ccccc4n3CC2(C)C(=O)NC2CCCC2)cc1OC (stereo not drawn)	0.45	0.359	-2.67	-15.4	-1.89
Cn1c(=O)c2[nH]c(-c3ccccc3)nc2n(C)c1=O	4.29	13	4.52	-0.597	11.6
CCCN1C(=O)c2c(C(=O)NCc3ccc(OC)c(OCC)c3)ncn2CC1(C)C(=O)NC1CCCC1 (stereo not drawn)	-3.78	0	-5.62	-8.93	0.551
S=c1ssc2c1CCC2		-3.2		-70.5	-62.2
O=c1c2ccccc2n2c(=O)n(Cc3ccccc3Cl)nc2n1Cc1ccccc1	-2.17	3.74	6.92	-2.04	-2.16
COC(=O)C1=CO[C@@H](O[C@@H]2O[C@H](CO)[C@@H](O)[C@H](O)[C@H]2O)[C@@H]2C(CO)=CC[C@H]12	-2.38	-6.09	0.931	-15.2	0.287
COc1ccc([C@H](Cc2ccncc2)c2ccccc2)cc1OC1CCCC1	-1.84	2.92	4.33	-19.9	-5.01
O=C(/C=C/c1ccccc1)OC[C@]12O[C@H]1[C@@H](O)[C@@H]1C=CO[C@@H](O[C@@H]3O[C@H](CO)[C@@H](O)[C@H](O)[C@H]3O)[C@@H]12	-3.39	1.56	5.96	-9.95	7.39
C=CC1(C)CC2=CCC3C(C)(C(=O)O)CCCC3(C)C2CC1OC(C)=O (stereo not drawn)	0	6.54	10.9	-9.91	-1.66
